From PMC4397963, “Phospho-Tyrosine(s) vs. Phosphatidylinositol Binding in Shc Mediated Integrin Signaling” (American journal of molecular biology, 2015)
No constants are given. Whether binding was seen depends on the method and setting. Some binding calls cover weakened binding; strength is not graded here.

Tests used:
[1] = target: T1, Shc SH2 domain (380 – 473) (UniProt P29353); assay: ITC; SH2 domain with β3 phosphopeptides; 'in all the experiments performed'; 12°C or 25°C; 50 mM Tris, pH 7.5, 100 mM NaCl, 5 mM β-mercaptoethanol; both purified
T1 sequence: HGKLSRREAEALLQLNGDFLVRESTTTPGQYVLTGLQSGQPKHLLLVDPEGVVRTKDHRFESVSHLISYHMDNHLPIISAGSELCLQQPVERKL

[2] = target: T2, Shc PTB domain (17 – 207) (UniProt P29353); assay: NMR titration; 15N-HSQC of 15N-labelled PTB domain (100-200 μM) with bi-β3 or c-β3 added at 1:2 protein-to-peptide ratio, without and with PtdIns (1:0 to 1:15); 35°C; 50 mM Tris, pH 7.5, 100 mM NaCl, 5 mM β-mercaptoethanol, 7% D2O; both purified
T2 sequence: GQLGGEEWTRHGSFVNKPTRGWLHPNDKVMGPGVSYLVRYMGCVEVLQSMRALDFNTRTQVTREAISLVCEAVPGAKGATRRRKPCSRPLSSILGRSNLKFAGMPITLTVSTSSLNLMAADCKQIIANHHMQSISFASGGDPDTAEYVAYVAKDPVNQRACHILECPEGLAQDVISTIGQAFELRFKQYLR

[3] = target: T2, Shc PTB domain (17 – 207); assay: SEC; Superdex-75; 50 mM Tris, pH 7.5, 100 mM NaCl, 5 mM β-mercaptoethanol; both purified
[4] = target: full length Shc (1 – 473) (UniProt P29353); assay: as above
[5] = target: T1, Shc SH2 domain (380 – 473); assay: as above

With ATSTFTNITYRGT (phosphotyrosine at 759 (pY)) [c-β3: β3 integrin derived peptide phosphorylated at C-terminal tyrosine (Y759)] the binding [1] was “no binding” and the binding [2] was “binds”.

RAKWDTANNPLYKEATSTFTNITYRGT (phosphotyrosine at 747 and 759 (pY)) [bi-β3: β3 integrin derived bi-phosphorylated (Y747 and Y759) peptide] was tested, and the binding [1] was “no binding”.

B1: Shc PTB domain (17 – 207) (domain or fragment, UniProt P29353-2 17-207)
chain: T2 sequence
B1 was tested, and the binding [3] was “no binding”.

B2: full length Shc (1 – 473) (protein, UniProt P29353-2 1-473)
chain: MNKLSGGGGRRTRVEGGQLGGEEWTRHGSFVNKPTRGWLHPNDKVMGPGVSYLVRYMGCVEVLQSMRALDFNTRTQVTREAISLVCEAVPGAKGATRRRKPCSRPLSSILGRSNLKFAGMPITLTVSTSSLNLMAADCKQIIANHHMQSISFASGGDPDTAEYVAYVAKDPVNQRACHILECPEGLAQDVISTIGQAFELRFKQYLRNPPKLVTPHDRMAGFDGSAWDEEEEEPPDHQYYNDFPGKEPPLGGVVDMRLREGAAPGAARPTAPNAQTPSHLGATLPVGQPVGGDPEVRKQMPPPPPCPGRELFDDPSYVNVQNLDKARQAVGGAGPPNPAINGSAPRDLFDMKPFEDALRVPPPPQSVSMAEQLRGEPWFHGKLSRREAEALLQLNGDFLVRESTTTPGQYVLTGLQSGQPKHLLLVDPEGVVRTKDHRFESVSHLISYHMDNHLPIISAGSELCLQQPVERKL
For B2, the binding [4] was “no binding”.

B3: Shc SH2 domain (380 – 473) (domain or fragment, UniProt P29353-2 380-473)
chain: T1 sequence
With B3 the binding [5] was “no binding”.
